Results on 63 sequences are retold here after the supplement of paper PMC10681739.

± gives the standard deviation of the averaged measurements. Over roughly 4,100 sequences, “arbitrary fluorescence units” has its median near 780; the highest 2% begin near 22,000. The list shows a part of the results.

The assay has as its target T1, ETS1 (UniProt P14921).
T1 sequence: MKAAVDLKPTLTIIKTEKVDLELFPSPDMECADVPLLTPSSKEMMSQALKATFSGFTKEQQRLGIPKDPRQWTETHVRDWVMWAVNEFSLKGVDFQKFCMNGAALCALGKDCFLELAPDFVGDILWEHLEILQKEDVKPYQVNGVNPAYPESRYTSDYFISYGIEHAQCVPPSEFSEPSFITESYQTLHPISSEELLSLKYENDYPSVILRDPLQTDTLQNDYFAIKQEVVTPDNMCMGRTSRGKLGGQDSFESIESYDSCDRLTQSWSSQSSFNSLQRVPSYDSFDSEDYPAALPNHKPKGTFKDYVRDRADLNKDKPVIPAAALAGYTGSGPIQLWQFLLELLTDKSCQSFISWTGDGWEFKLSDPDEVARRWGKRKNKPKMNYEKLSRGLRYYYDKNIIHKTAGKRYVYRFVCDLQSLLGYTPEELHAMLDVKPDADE
Kind of assay: ETS1 binding intensity (PBM fluorescence), ETS1 alone (arbitrary fluorescence units); higher = stronger binding. The settings on record: ETS1 concentration 1 nM; RUNX1 concentration 0 nM. Put shortly:
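Double-stranded Agilent 4 × 180k arrays held 36-bp genomic probes whose RUNX1 partner site was mutated, and these were incubated with 1 nM full-length recombinant human ETS1 in the absence of RUNX1 under standard PBM protocols. Bound protein was labelled with anti-ETS1 antibody (Cell Signaling Technology 14069) plus an Alexa488-conjugated secondary and read on a GenePix 4400A, with four spots printed per sequence. Binding level is reported as raw spot fluorescence intensity summarised over replicate spots.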
Turning to CCAGCCACTTCCGCTCGTCCGCCTAATATCGCGCCT, the ETS1 binding intensity amounted to 21100. With CTGACTTGTTGTAGTCTCTGCCACTTCCTGGGGTGT, the ETS1 binding intensity was determined as 661.

The sequence TCTGCTGCTTCTCTGGTTTACGGAAATTGTAACCCT came in with an ETS1 binding intensity of 493. As to GAGTGGGCGGAAATCCGTGCCTGGCAGACCAAAAAG, the ETS1 binding intensity amounted to 3810.

For GTCCAACAGCAGCCAGGCAAGCACATCCTGCCCCAC, the ETS1 binding intensity was 1980. Next, GGCCCTGGGCCGCTGGGGTAGCGACAGGAAGCGCCA: 572. As for GGCCAAGAAATCCACTCAGAGGAAATCACAGGCCTG, the ETS1 binding intensity is 439. Next, GGTACTCGCGGCTGAGCCAGCGGAAGAACGCCGGGA: 444; GCTCTCTGGCCTCCCCAGAGGTCAGATCAGGAAATG: 358; AGGGAGGAAGGGTACTGTTGGGAGCCCGTAATGGAA: 435.

With TCGCAGATATCACACCCACCCGGAAGTCCTCCTGGC, the ETS1 binding intensity turned out to be 1390. Take GGCTAAAGTGATTGGGGGTTGGATCCGGCGCGTGAC: the ETS1 binding intensity was determined as 468.

With GGTCACTTCGGCCCAGAGGCCCGCTCTTCCGCTGAG, the ETS1 binding intensity was determined as 564. As for CCTGCGTTTCCCTCATGAGCTTCTTCGGCCCGAAAC, the ETS1 binding intensity stood at 585. Next, ATGAATGGGATGTGGCAGCCCAGCCCTGAGGTGGAG: 348; CGGCGCTTGGGGGCGGGGCCGACCCCGGAAGGAAGG: 641; GGTGGACCTGTGATTTGCAACACAGGAAGAGGTGGC: 947. Regarding CCTACACTTCCCAGAGAACCTAGCGATTACGCCAAC, the ETS1 binding intensity was determined as 531. Next, CAGTTTATCCTGTGAGAGCCTTGGGGTTCCTACTAA: 975.

AGAGGCAGTTCCGGGGTGGGACCCGCGCGGAGCTTT came in with an ETS1 binding intensity of 3060. Next, GCAGAGTAACTCACTCTAGTTGTCCCTTCCTTAAGC: 434; CACTTGTCCTTCCTGGCCTGCGCCCGCCACCACTTC: 1320; GCCCTACCCAGCGGCGGCCGGACGCTTCGGCGCAGG: 435. Next, ATCGACTACCGAATCTGCAGACGTGCGCGGAAATGG: 482; CCGCGAACAGCAGAGTTCCCGCCTTCCGCAGCCCGG: 431 ± 38.

ACAGCTCACACAGGAAATACAAACCTTAAAAAGCAA came in with an ETS1 binding intensity of 5480. The sequence GAACGGAACTGGGGGCTGGGCCGTGTAGGTTTGTGA came in with an ETS1 binding intensity of 456.

As for GCCGTCACTTCCGTCATTCAAGCCGCCCGCCAATGG, the ETS1 binding intensity is 9110. Next, CGGGAGAGGAAGCCGGGTTGGACAGAGGTGGATTCC: 767; GACCAGGAAACGGGGCGTGGCGGCCGCCGTGGCTAC: 1230. Next, ACACGCACCATTTCCCGACTTTCGAGGTGTCCCAGG: 1300; GTAAAGAGCAGCCGCTGACAGGAAGGGGCCCAGCAG: 707; ACCCCAGCCGGATCCTCTGCTTATCTCCCACGTGCA: 395. CAGGCCTGTAGTTTCTGTAACAGGAAGTGATTTAGA returned an ETS1 binding intensity of 3870.

In turn, AAAACCTTTAAACTACAGGGGACAGGAAATGAGTGC came in with an ETS1 binding intensity of 1990. In turn, CAGCAAGTCACAGGCAGTAAACATTTCCTGTCCCCA gave an ETS1 binding intensity of 3920. CTGCCCAGCCACTTCCTGCCCAACCCCAGACTGACA yielded an ETS1 binding intensity of 16300.

GAGTACAGGAAATGCAAAGTAAAATCACAGTGAGAT returned an ETS1 binding intensity of 6100. Next, TGCACGTGAGCACGGACTTTTTTTCATATCCGCCGA: 502. Next, GGCTACCGGCACCCTCAGTGTCCGGAAACGCAGTCC: 1480. In turn, TCTCTTCTCCCCATCCGCCCGAGACAACAGCCACTC yielded an ETS1 binding intensity of 1070.

With TGAAGCAGGCGGAAGTGCTGTGCTTTCTGGCGACTG, the ETS1 binding intensity amounted to 3140. Next, CTAGCAACCTCGGGAAGGGGGCGTGGCCGGAAGCCT: 677; TTTCTTCCTGTTTGCATCACCCCAAATCCACTATCA: 16900. Next, AAAGAGGAAATCACATACCCGAAAATCACATGCACA: 777; AAAGAGAAAGGAAACAAAGTATAGCACCAGAGTGAG: 505. For the sequence AGCAGCCGCCGTAACCTGTAGCAACCGGAAGATGTC, the ETS1 binding intensity worked out at 2460. In turn, CCGCTCACAAGGAGGACTGAGACGCTTTTCCTGATA displayed an ETS1 binding intensity of 441. AGCGGCGGAACCACGCGCGGGAGCTGGTGCGCTCGG: the ETS1 binding intensity was found to be 325. Next, TGACTGCTCACTTCGGGCGAGGGGAAGTGGAGTGCA: 446; GAAACTACAACCTACCCCAGCCTTCCTTCCGGGCGC: 504. Next, AGCCACATCCTCCCTTAGGTCTGAGCGCAGCTTAAC: 5620; CCTCCTCCAGACCATCCTGGAAACCCCTGCCGTTCT: 478 ± 88; TTGCCGACCTCGGGGAGCAAGCGCCCGCCGGAAGCA: 477. TCACAGCGCAGCGGGGCCGGAAGGGGAGCGTGGGAG had an ETS1 binding intensity of 807. Next, CAACCAGCCCCTCAGCTGAGCTTCCGCTCAGCTCTC: 1590. In turn, GGTACACCCCGCCCTCAGGTACCCGGACGGCGCAAG displayed an ETS1 binding intensity of 345.

In turn, CTCCTGTGGGATGTGACTTCAAGGAGACAACAGATG returned an ETS1 binding intensity of 522. In turn, TGGAGGTGCTTACACACAGCTGTTTCCGTGAGGGTG yielded an ETS1 binding intensity of 421. Next, AAGCCGGTGGATTCTGGAGGTTCAGCACATCCTGGA: 531; AGTCTCGTTTCCTGTGCGCTGTTGCCACCTGGCAGC: 12800. Sequence TCATAAGGAAGTGGAGTGTAGTAATCACAGGCCCCG came in with an ETS1 binding intensity of 589. Next, GCCGGCGGCCGGAAGTCTATCCCGGAGAAGCGCAGC: 14600.
